# Experimental data from PubChem BioAssay AID1508642 (National Center for Advancing Translational Sciences (NCATS), 2021).
# The whole screen tested about 43,000 compounds, of which about 200 (0.47%) were called active. About 12% were inconclusive and are not listed. The call rests on the fitted dose curve; in most records, active means well fitted cell-killing curve with a large enough effect; inconclusive means small, poorly fitted or top-dose-only effect, or effect the other way; inactive means flat fitted curve, though single readings scatter. This is one part of the list.
# Assay: Cell viability qHTS assay in S16 Pmp22-F2sN cells; further: nearly all actives have a fitted effect of over 65% in size
# Details: S16 Pmp22-F2sN Schwann cells (luciferase reporters placed in the Pmp22 gene) viability, CellTiter-Glo, 24 h; series mostly up to 57.5 µM; activity change, negative = cytotoxicity: at the top concentration
# Summary of the method: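 CellTiter-Glo counter-screen, qHTS, 1536-well. Cells: S16(c9) Pmp22-F2sN, 500-1,000/well in DMEM + 10% FBS. Cpd 23 nL pin transfer, 24 h, 37C/5% CO2. Read: luminescence, CCD imager.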
# On the % scale 0 is the no-effect control and ±100 the full control effect.
row,SMILES,"activity change, negative = cytotoxicity"
1,O=C(CSc1nc2c([nH]c3ccccc32)c(=O)n1-c1ccc(Cl)cc1)N1CCCCCC1,inactive: -8.49%
2,O=C(NCCc1ccccc1)C(=O)NCC(c1ccco1)S(=O)(=O)c1ccccc1 (stereo unspecified),inactive: -3.69%
3,COCCCNC(=O)CCC(=O)NNc1nc2ccccc2c2nc(-c3ccccc3)nn12,inactive: -9.19%
4,COCCNC(=O)CSc1nc2cc3c(cc2c(=O)n1Cc1ccc(C(=O)NCCc2ccc(OC)c(OC)c2)cc1)OCO3,inactive: 1.77%
5,CCOc1ccc(NC(=O)CSc2nnc(-c3ccncc3)n2-c2ccccc2)cc1,inactive: -6.77%
6,CCc1cccc(NC(=O)CSc2ncc3c(n2)-c2ccccc2N(CC)S3(=O)=O)c1,inactive: -3.33%
7,COc1ccc(NC(=O)C(C)n2nc(-c3cc(C)ccc3C)c3c(c2=O)CCCC3)cc1 (stereo unspecified),inactive: 11.5%
8,COc1ccc(CNC(=O)c2ccc(CSc3nc4ccncc4n3Cc3ccccc3F)cc2)cc1,inactive: -24.8%
9,CC(=O)N1CCC2(CC1)OC(=O)C(C)=C2C(=O)NCc1cccc(Cl)c1,inactive: 3.42%
10,O=C(O)CCc1nnc2cnc3ccccc3n12,inactive: -0.117%
11,Cc1ccc2ncc(C(=O)NC(C)c3ccccc3)c(=O)n2c1 (stereo unspecified),inactive: -2.71%
12,Cc1ccc(C(=O)Nc2nnc(S(=O)(=O)N3CCN(c4ccc(F)cc4)CC3)s2)cc1,inactive: -1.81%
13,Cc1ccc(CNC(=O)c2cnc3c(-c4ccccc4)c(C)nn3c2C)o1,inactive: -5.22%
14,O=[N+]([O-])c1cc(-c2nc(-c3ccccn3)no2)ccc1NCc1ccccc1,inactive: 17.1%
15,Cc1ccc(N2C(=O)CS(=O)(=O)C23C(=O)N(C)c2ccccc23)cc1F (stereo unspecified),inactive: 4.05%
16,Cc1ccc(N2CCN(C(=O)c3c(C)oc4ncnc(N5CCOCC5)c34)CC2)c(C)c1,inactive: 15.2%
17,COc1cc(NC(=O)NCC2CCN(Cc3ccc(C)cc3)CC2)cc(OC)c1OC,inactive: 6.24%
18,Cc1ccc2scc(N3CCCCC3)c(=O)c2c1,inactive: -0.639%
19,COCCCNC(=O)c1cnn(-c2ccc(F)cc2F)c1C1CCNCC1,inactive: -5.37%
20,CN(Cc1ccccc1)C(=O)C1CCC(CNS(=O)(=O)c2ccc3c(c2)CCCC(=O)N3)CC1 (stereo unspecified),inactive: 8.91%
21,Cc1ccc(N2CCN(C(=O)C3CCN(c4ncnc5c4nc4n5CCCCC4)CC3)CC2)c(C)c1,inactive: -0.438%
22,Cc1ccc2nc(NC(=O)c3nc(SCc4ccccc4C)ncc3Cl)sc2c1,inactive: -4.01%
23,CCOC(=O)c1c(S(=O)(=O)NCC(=O)Nc2ccc(F)cc2C)c(C)n(C)c1C,inactive: -3.55%
24,COc1cc(OC)cc(-c2nc3nc(C)c(CCC(=O)NCCC(C)C)c(C)n3n2)c1,inactive: 12.7%

row,SMILES,"activity change, negative = cytotoxicity"
1,O=c1c(S(=O)(=O)c2cccc(Cl)c2)cn(Cc2ccccc2)c2cc(N3CCCCC3)c(F)cc12,inactive: 5.83%
2,COc1ccccc1NC(=O)CN1C(=O)CSc2ccc(S(=O)(=O)N3CCCC3)cc21,inactive: 19.9%
3,Cc1ccc(CCNC(=O)c2cn(C)c3ccc(S(=O)(=O)N4CCC(C)CC4)cc3c2=O)cc1,inactive: 10.6%
4,Cc1cc(C)c(NC(=O)CCCn2c(C)c3cnn(-c4ccccc4)c(=O)c3c2C)c(C)c1,inactive: -13.3%
5,CC(C)CC(=O)Nc1nnc(SCc2cc(=O)n3ccccc3n2)s1,inactive: 7.25%
6,COc1cccc(-n2cc(C(=O)OCc3ccc(Cl)cc3)c3ccccc3c2=O)c1,inactive: -2.81%
7,Cc1cccc(CNC(=O)c2ccc(C)c(-n3c(C)nc4cccnc43)c2)c1,inactive: -5.4%
8,CCOc1ccc(-n2c(=O)c3c(C)c(C)sc3n(CC(=O)N3CCC(C)CC3)c2=O)cc1,inactive: 10.5%
9,O=C(NCc1ccccc1Cl)c1ccc(Cn2c(=O)c3cccn3c3cccnc32)cc1,inactive: 1.55%
10,CCn1ccc2cc(S(=O)(=O)N3CCC(C(=O)NCCc4ccccc4)CC3)ccc21,inactive: -0.727%
11,CC(=O)C1=C(c2ccc(Br)cc2)N(C(C)=O)n2c(nnc2C2CCCCC2)S1,inactive: 2.71%
12,COc1cc(OC)c(NC(=O)c2c(C)oc3nc(C)nc(N4CCOCC4)c23)cc1Cl,inactive: 0.257%
13,O=C(c1cccc(Cl)c1)n1nc(-c2cccnc2)nc1NCc1ccccc1,inactive: -1.97%
14,COc1cc(OC)cc(C(=O)Nc2nnc3n2CCS3)c1,inactive: -16%
15,Cc1ccc(C(=O)Nc2nc(-c3nnn(-c4cccc(C(F)(F)F)c4)c3C)ns2)cc1,inactive: -0.132%
16,CSCCC(NS(=O)(=O)c1ccc2c(c1)oc(=O)n2C)C(=O)N1CCN(c2ccc(C(C)=O)cc2)CC1 (stereo unspecified),inactive: 6.49%
17,CCc1ccc(-n2c(=O)c3cccnc3n2CC(=O)Nc2cc(OC)ccc2OC)cc1,inactive: -2.56%
18,O=C(c1ccc(F)cc1)n1nc(-c2cccnc2)nc1NCc1ccc(F)cc1,inactive: 1.67%
19,Cc1nc(-c2ccc(S(=O)(=O)N3CCN(c4cc(Cl)ccc4C)CC3)cc2)co1,inactive: -5.36%
20,O=C(NCCc1ccc(Cl)cc1)C1COc2ccccc2C1 (stereo unspecified),inactive: -5.94%
21,Cc1cn2c(=O)c(S(=O)(=O)N3CCN(c4cc(Cl)ccc4C)CC3)c(C)nc2s1,inactive: -1.42%
22,CCOC(=O)c1noc2ncn(CC(=O)Nc3cccc(Cl)c3)c(=O)c12,inactive: 6.01%
23,O=C(CSc1c2c(nc3cc(Cl)ccc13)CCCC2)N1CCN(c2ccccc2F)CC1,inactive: 1.15%
24,COc1ccccc1NC(=O)CSc1oc(-c2ccccc2)nc1S(=O)(=O)c1ccc(C)cc1,inactive: -2.17%

row,SMILES,"activity change, negative = cytotoxicity"
1,Cc1ccc2nc(-c3cccnc3)c(Nc3ccc(C(C)C)cc3)n2c1,inactive: 3.59%
2,O=C(COc1ccc2ccccc2c1)NC1CC(=O)N(c2ccccc2)C1 (stereo unspecified),inactive: 2.45%
3,Cc1ccc(S(=O)(=O)c2nc(-c3cccs3)oc2SC(C)C)cc1,inactive: -17.9%
4,N#Cc1ccccc1NC(=O)C(=O)NCCc1csc(-c2ccc(F)cc2)n1,inactive: -2.88%
5,O=C(Cn1c(=O)oc2cc(S(=O)(=O)N3CCCC3)ccc21)Nc1ccc(F)cc1F,inactive: -0.459%
6,CCNC(=O)CC1C(=O)N(c2ccc(C)cc2)C(=O)N1CCC(C)C (stereo unspecified),inactive: 0.263%
7,COc1ccc2c(Sc3ccc(Cl)cc3)c(C(=O)N3CCC(C)CC3)[nH]c2c1,inactive: 2.39%
8,O=C(Nc1cccc(-c2nc3cccnc3s2)c1)c1cccc(Br)c1,inactive: 1.09%
9,CCOC(=O)c1ccc(NC(=O)c2cn(-c3ccccc3)nc2-c2ccc(OC)c(OC)c2)cc1,inactive: 20.7%
10,CCOc1ccccc1NC(=O)CSc1ncc(S(=O)(=O)c2ccc(C)c(C)c2)c(N)n1,inactive: 17.2%
11,COc1ccc(CCNC(=O)Cn2cc(S(=O)(=O)Cc3ccccc3Cl)c3ccccc32)cc1OC,inactive: -19.2%
12,O=C(CSc1nnc(-c2ccccc2F)o1)Nc1ccccc1Cl,inactive: -16.9%
13,COc1ccc(-c2cc(OC(=O)c3cccc(Cl)c3)c3c(C)oc(C)c3c(=O)c2)cc1,inactive: 0.353%
14,CCOc1ccc(NC(=O)Cn2nnc(C(=O)NCCc3ccccc3)c2N)cc1,inactive: 23.5%
15,COc1ccc(-c2noc(-c3ccc(NCC4CCCO4)c([N+](=O)[O-])c3)n2)cc1 (stereo unspecified),inactive: 9.49%
16,CCc1nn(CC(=O)Nc2c(C)cccc2C)c(=O)c2cc3sccc3n12,inactive: 1.61%
17,O=C(CSc1nc2c([nH]c3ccccc32)c(=O)n1-c1ccccc1)Nc1ccc(Cl)c(Cl)c1,inactive: -1.73%
18,CSc1ccc(C2c3c(oc4cc(C)cc(C)c4c3=O)C(=O)N2CCO)cc1 (stereo unspecified),inactive: 13%
19,Cc1nc2sc(C(=O)N(C)c3ccccc3)c(NC(=O)c3ccccc3Cl)c2c(C)c1C,inactive: 18%
20,CC[C@@H](C)[C@@H](C(=O)Nc1ccc(C)cc1)N1Cc2ccccc2C1=O,inactive: -11.1%
21,CCCn1c(=O)c2c(nc3n2CCN3c2ccc(C)cc2)n(C)c1=O,inactive: -3%
22,Cc1ccc(CN(C(=O)COc2ccc(Cl)cc2C)C2CCS(=O)(=O)C2)o1 (stereo unspecified),inactive: -6.33%
23,Cc1ccc(OCC(=O)N(Cc2ccco2)Cc2ccco2)cc1C,inactive: -6.9%
24,CC(C)CCNC(=O)CCn1c(=O)c2cccn2c2cccnc21,inactive: 18%

row,SMILES,"activity change, negative = cytotoxicity"
1,COc1cn(CC(=O)Nc2ccccc2)c(CN2CCCCC2)cc1=O,inactive: -0.0849%
2,Cc1oc2ncn(CC(C)C)c(=O)c2c1C(=O)NCCCN1CCC(C)CC1,inactive: 5.58%
3,O=C(COc1ccccc1F)OCc1cc(=O)n2nc(C3CC3)sc2n1,inactive: 9.62%
4,COc1ccc(-c2cc(C(=O)Oc3cccc(C)c3)c3cc(C)ccc3n2)cc1,inactive: 2.91%
5,Cc1ccc(NC(=O)CN2C(=O)CCc3cc(S(=O)(=O)N4CCCCC4)ccc32)cc1C,inactive: -15.6%
6,Cc1cc(C)cc(-n2c(C)nc3cc(C(=O)NCc4ccccc4Cl)ccc32)c1,inactive: -17%
7,CCN(CC)Cc1c(NC(=O)c2ccc(OC)cc2)sc2c1CCCC2,inactive: 4.32%
8,COc1ccc(CCNC(=O)Cn2c(=O)c3cccn3c3ccc(F)cc32)c(OC)c1,inactive: 8.26%
9,CC(=O)Nc1ccc(Nc2nc3c(S(=O)(=O)c4cccc(Cl)c4)nnn3c3ccsc23)cc1,inactive: 4.26%
10,Cc1ccc2oc(=O)c3cc(C(=O)Nc4ccccc4C(N)=O)sc3c2c1,inactive: 4.27%
11,Cc1onc(-c2c(F)cccc2Cl)c1C(=O)Nc1ccc(OC(C)C)cc1,inactive: -14.3%
12,CCc1cccc(C)c1NC(=O)C1CCN(c2nn3c(=O)cc(C)nc3s2)CC1,inactive: 12.3%
13,CCOc1ccc(Nc2cc(C)nc3nc(Cc4ccc(Cl)cc4)nn23)cc1,inactive: 11.8%
14,Cc1ccc(-n2nc3c(N4CCC(C(=O)NC(C)c5ccccc5)CC4)nnc(C)c3c2C)cc1 (stereo unspecified),inactive: -10.3%
15,COc1ccccc1N1CCN(C(=O)c2c(C)oc3ncn(CC(C)C)c(=O)c23)CC1,inactive: -0.405%
16,O=C(Cn1ccc2ccccc2c1=O)NCCC(=O)Nc1ccc(F)cc1F,inactive: -3.18%
17,COc1ccc(CCNC(=O)c2cc3c(s2)-c2ccccc2OC3)cc1OC,inactive: 8.78%
18,Cc1cccc(NC(=O)Nc2ccc(Br)cc2)n1,inactive: 1.85%
19,Fc1ccc(N2CCN(c3ncnc4c3nc3n4CCCCC3)CC2)cc1,inactive: 0.814%
20,COc1ccc(S(=O)(=O)c2c(O)c3ccc(C(=O)NCc4ccccc4)cc3[nH]c2=O)cc1,inactive: 1.96%
21,CCOCCCn1c(=N)c(C(=O)NCc2cccnc2)cc2c(=O)n3cc(C)ccc3nc21,inactive: 24.7%
22,CC(=O)Nc1ccccc1-c1nc2ccccc2n(CC(=O)c2ccc(Br)cc2)c1=O,inactive: 14.4%
23,CCOC(=O)c1cccc(NC(=O)c2cc(S(=O)(=O)N3CCCC(C)C3)cn2C)c1 (stereo unspecified),inactive: 18.7%
24,CC1=C(C(N)=O)C(c2ccc(C)cc2)n2nc(SCc3ccccc3F)nc2N1 (stereo unspecified),inactive: 12.3%
